# Some of the results follow. Most values come without repeats; read them as rough.
# System: Salmonella enterica serovar Typhimurium SL1344
# Test: bacterial growth OD600 after 18 h in MHB with 0.5 µg/mL polymyxin B; higher = more bacterial growth (less inhibition)
# Conditions: 25 µM; polymyxin B 0.5 µg/mL; system: broth
# Procedure: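 Secondary screen of the 553 primary hits at 25 µM. (i) S. Typhimurium SL1344 grown in Mueller-Hinton broth with 0.5 µg/mL polymyxin B, OD600 read after 18 h. (ii) SAFIRE assay: RAW 264.7 macrophages infected with S. Typhimurium sifB::gfp (MOI 30); compound added 2 h post-infection; cells fixed at 18 h; GFP-positive pixel fraction per macrophage imaged by confocal microscopy and expressed as % of DMSO control.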
# 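Note: polymyxin B level opens the outer membrane while sparing the inner membrane, with novobiocin wells as reference growth inhibitor.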
row,Structure (SMILES),bacterial growth OD600
1,Cc1cccc2nc(CN(C)c3nncc(-c4ccc(Cl)cc4)n3)[nH]c12,0
2,Cc1cc(Cl)c2oc(C(=O)N(CCO)Cc3ccccc3)c(C)c2c1,-0.006
3,C=C(C)CN(CC)Cc1c(C(=O)N2CCc3ccccc3C2)nc2ccc(Cl)cn12,-0.023
4,O=C(Nc1ccc(-c2ccco2)cc1)C1CCCN(Cc2cccc3nonc23)C1 (stereo unspecified),0.429
5,CN(Cc1ccccc1)C1(C(=O)NC2CCS(=O)(=O)C2)Cc2ccccc2C1 (stereo unspecified),0.003
6,COc1ccc(-c2noc(CN3CCC(O)(c4cccc(C(F)(F)F)c4)CC3)n2)cc1,0.002
7,COc1ccccc1C(=O)C1CCCN(C(=O)c2csc(-c3cccs3)n2)C1 (stereo unspecified),0.003
8,Cc1nonc1CN(C)C(=O)C1CCCN(c2nc(-c3ccccc3)nc3c2CCC3)C1 (stereo unspecified),-0.003
9,CCS(=O)(=O)Nc1cc(C(=O)N(C)C(C)c2cccs2)c2c(c1)nc(-c1ccccc1)n2C (stereo unspecified),0.008
10,Cc1ccc(-n2cccn2)c([C@@H]2C[C@H]3CN(C4CCCC4)C(=O)[C@]34CCCN24)c1,0.524
11,Cc1ccc(-c2nnc(CCC(=O)NCCc3cccc4ccccc34)o2)s1,-0.004
12,CCOC(=O)C1(C/C=C/c2ccccc2)CCCN(Cc2nccs2)C1 (stereo unspecified),0.063
13,Cc1noc(-c2ccc(NCC[C@@H]3C[C@@H]4C=C[C@H]3C4)nc2)n1,0.004
14,C=CCC(=O)N1CCCC1C(=O)Nc1ccc(-c2cccc(OC)c2)cc1 (stereo unspecified),0.346
15,COc1ccc(/C=C/C(=O)N(Cc2ccncc2)Cc2cccc(OCCc3ccc(F)cc3)c2)cc1,0.003
16,COc1ccc(CN(Cc2ccncc2)C(=O)c2sccc2C)cc1OCc1ccccc1F,0.002
17,C#Cc1cccc(C(=O)N2CCc3onc(-c4cccc(F)c4)c3C2)c1,-0.003
18,O=C(c1cn2ccsc2n1)N(Cc1ccncc1)Cc1cccc(OCCc2ccc(F)cc2)c1,-0.007
19,CCOC(=O)C1(CCc2ccccc2)CCCN(Cc2cnc(SC)nc2)C1 (stereo unspecified),0.003
20,O=C(CCc1nnc(-c2ccc(-c3ccccc3)cc2)o1)N1CCCCCCC1,-0.009
21,CCN(CC)c1ncccc1CNC(=O)c1cccc(Cl)c1,0.631
22,CCN(Cc1ccccc1)c1nc(CNC(=O)Cn2nc(C)c3ccccc3c2=O)nc2ccccc12,0.004
23,Cc1cc(C(=O)N2CCc3c([nH]c4ccccc34)C2c2ccc(F)cc2)no1 (stereo unspecified),0.002
24,CCn1ccnc1CN(C)C(=O)CC(c1ccccc1)c1ccc(Cl)cc1 (stereo unspecified),0.003
25,Cc1nonc1CN(C)C(=O)C1(N2CCCCC2)Cc2ccccc2C1,0.004
26,Cc1nn(C)cc1CN1CCOc2ccc(C3=Cc4ccccc4C3)cc2C1,-0.006
